The full ranking holds about 33,000 sequences; the median of “E-score (-0.5 to 0.5)” is about -0.021, and the highest 2% start at about 0.32. This is one part of the list.
target: T1, Zap1 (UniProt P47043); test: PBM E-score (8-mer binding enrichment) (E-score (-0.5 to 0.5)); higher = stronger / more preferred TF binding; most listed sequences are background and not binding sites; details: protein concentration: 200 nM; construct: GST-full length
T1 sequence: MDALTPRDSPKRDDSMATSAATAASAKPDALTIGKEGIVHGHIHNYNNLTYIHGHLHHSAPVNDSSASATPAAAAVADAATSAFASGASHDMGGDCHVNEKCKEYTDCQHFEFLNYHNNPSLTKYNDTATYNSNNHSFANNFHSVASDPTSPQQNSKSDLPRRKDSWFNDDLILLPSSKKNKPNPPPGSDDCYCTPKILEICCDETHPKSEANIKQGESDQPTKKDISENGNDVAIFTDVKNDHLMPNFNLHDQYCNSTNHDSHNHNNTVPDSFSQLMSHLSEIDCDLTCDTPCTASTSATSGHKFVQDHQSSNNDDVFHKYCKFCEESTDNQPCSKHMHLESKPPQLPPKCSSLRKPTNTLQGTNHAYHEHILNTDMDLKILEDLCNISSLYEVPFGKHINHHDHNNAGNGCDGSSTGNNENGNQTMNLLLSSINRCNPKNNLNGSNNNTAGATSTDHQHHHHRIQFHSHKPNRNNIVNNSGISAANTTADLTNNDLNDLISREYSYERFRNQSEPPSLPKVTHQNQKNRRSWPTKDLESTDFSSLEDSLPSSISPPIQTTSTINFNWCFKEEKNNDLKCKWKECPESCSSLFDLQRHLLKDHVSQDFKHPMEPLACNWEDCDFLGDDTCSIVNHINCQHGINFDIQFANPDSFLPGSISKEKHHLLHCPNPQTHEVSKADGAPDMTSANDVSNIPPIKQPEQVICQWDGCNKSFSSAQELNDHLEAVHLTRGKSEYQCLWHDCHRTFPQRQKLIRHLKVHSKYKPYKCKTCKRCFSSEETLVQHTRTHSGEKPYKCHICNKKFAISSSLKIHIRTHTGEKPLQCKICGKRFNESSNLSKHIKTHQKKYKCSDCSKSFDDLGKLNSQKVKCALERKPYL
Outline: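 GST-tagged yeast TFs (full-length or DNA-binding domain) were made by PURExpress in vitro transcription/translation and applied at about 100-200 nM to universal all-10-mer Agilent arrays. The arrays were made double-stranded by primer extension, on fresh or once-stripped slides. Bound protein was detected with fluorescent anti-GST, and scans were normalised with masliner. Each ungapped eight-base word, pooled with its reverse complement, received an E-score (modified Wilcoxon-Mann-Whitney statistic) from the Universal PBM Analysis Suite.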

Sequence	PBM E-score
GAACCGTA	-0.165
CCGCAGCG	-0.13
CTCGCTGA	-0.0008
ACTATCGA	-0.0815
ACTTTGGC	-0.113
ATAAAACG	-0.00923
GCATTTCA	0.0235
AATCCGAA	-0.0876
ATCCGTGG	-0.0543
AGGTTCGG	-0.112
GATATGGA	0.0205
ATACATTA	0.133
AGGCGACA	-0.329
AAGCTGGC	-0.275
CAGGGAAA	-0.158
AATGTCCC	-0.066
AGACCGGC	-0.262
GTACCCAA	0.234
CACATCTA	-0.093
AGTATACC	0.16
GACTAGTC	-0.225
CTGCCCTC	-0.256
CAGAACCC	0.317
GCGACCAC	-0.0322
AGAACCGA	0.0215

Sequence	PBM E-score
GATCGAAC	0.0204
GCGGTTAC	0.452
CAAGTTTA	0.161
CCCAGTGC	-0.044
GAGCTTCA	-0.128
AGTTTCTG	0.0935
GTTTTGCA	0.057
AGCTCTCA	-0.176
CGAACGAA	-0.104
AAGCTCTG	-0.208
GTTTAGTA	0.162
CTAAGCAA	-0.23
ACGAATTG	0.0213
GCTGAGGA	-0.155
ACGGTTAG	0.223
TAACAGCA	0.0563
AACAGCAC	-0.043
AATCCGAG	-0.115
AGGAATGC	-0.217
GGCCTTGA	0.0312
TCTTTCAA	-0.0173
CTTTGACC	0.217
AATCTCTC	-0.098
ACGTACCA	-0.0952
CGGATTCA	-0.214

Sequence	PBM E-score
GCATCGGA	-0.108
GTAGTGGA	0.0595
CCCTCCTC	-0.0866
ACCACTCG	0.197
AGTCTTTG	-0.0475
ATAGCAGC	-0.228
AAATAAGT	0.0355
ATACATAC	-0.122
ACCCTAGC	0.247
ATACCGAG	0.0739
CGTCATGA	0.0742
CTCATTTC	0.0143
ATATGTGC	-0.105
CGTGAACA	0.221
AATTAGGC	-0.0246
ATTTGCCC	-0.0591
ACTGGTAC	0.15
ACGAGGTC	0.27
ACCCGAAA	0.328
GGGTATTA	0.267
CATAGAGG	0.0738
AGCATTAT	-0.1
GCGGGTAA	0.106
GGCCGTAC	0.117
CAGTCATC	-0.3

Sequence	PBM E-score
CCACCTGC	-0.0244
CCTTTCTC	-0.006
CGTACCGA	-0.135
ACAAACAA	0.142
CTGCATCC	-0.0895
ATATATTC	-0.0796
CCCCCATC	-0.0216
CCTAATTA	0.0706
GTCCTTAA	0.268
AATCCGGC	-0.241
CGTAATAG	-0.0281
TAGGTCAA	0.139
TCCGTCCA	-0.0919
ATAGTCTA	-0.111
ACTACCTG	0.118
GAGTGGCA	-0.221
AGTCTCAA	-0.0712
GTACACAC	0.0642
CAGCCACG	-0.141
ACAAGGCA	-0.181
AGGATACA	-0.161
GTGGCGGA	-0.117
CCTTGGAA	0.102
GACAAGGA	-0.0301
CTAGTGCC	-0.168

Sequence	PBM E-score
AAACTCTT	-0.194
AGGGATTA	0.122
AGAAATCC	-0.104
CGAAGAAG	-0.0716
ACCCAAGC	-0.0155
GAACGGGA	-0.128
AATCCGTC	-0.0793
ACTACCAC	0.119
CCTGAGCA	0.0632
ATTGAGAA	0.128
ACCGTCGA	0.0603
GGCGTAAA	-0.0676
ACCTGTCG	0.0224
CGTCGAAG	-0.182
CGAAGATC	-0.146
CGTCCATC	-0.194
AGTGGTAA	0.241
TGACTAAA	-0.0176
CTAAATAC	0.0338
CTTGATGA	0.189
TAACCAAA	0.386
TGGGCCCA	0.0602
ACTAGGTA	-0.0051
CCGACATA	0.0519
AAAAGGCT	0.0247

Sequence	PBM E-score
ACTTCTAT	-0.0897
CCTCCAGG	0.0633
AACTACAT	0.0935
ATGCACGA	-0.0638
CACAAACC	0.00637
CTCAGGAC	0.0351
ACATTCCT	-0.107
CATCTCTA	-0.0862
AAGAACCG	0.16
GACCGCAA	0.226
GCAACCTA	0.106
GCGGTTCA	-0.00935
CCAGCACG	-0.131
CCCCCAAG	-0.0304
AGCCGAAC	-0.144
ATAAACAC	0.156
GCCAAAAA	0.226
TGGGACAA	0.0979
CGCCGATC	-0.0775
ACGAACAG	-0.0258
ACGATCTG	-0.221
AGCAGGGC	-0.19
GCACCGCC	-0.133
GCATGAAA	0.0763
CTGGTATC	-0.0766

Sequence	PBM E-score
CGCCCTGA	-0.151
AAGACATT	-0.161
GATCGGTA	0.0187
ACATGGAG	-0.288
GAGCTCCA	-0.146
AGCATCAC	-0.186
ATAATTAA	0.283
ACAAGTGT	-0.0701
TAACGCCA	-0.00924
AGCTACTG	-0.0511
TGATTACA	0.0808
ATGCCTAG	-0.142
CAACCTCC	0.11
AGTATCCA	0.0249
ATCAAGAA	0.169
AAGATGAA	-0.119
ACCCCTAT	0.324
CGACCTGC	-0.098
GTCAACGA	0.088
CAGTGTGA	-0.00553
CGATGTGC	-0.193
GATGGCCA	0.202
